These results are taken from ChEMBL document CHEMBL4888484, “Replenishing the malaria drug discovery pipeline: Screening and hit evaluation of the MMV Hit Generation Library 1 (HGL1) against asexual blood stage Plasmodium falciparum ,using a nano luciferase reporter read-out” (2022).

The campaign covered roughly 150,000 compounds. About 540 (0.36%) showed an effect of 50% or more. Some of the results follow.

One may read the % Inhibition as the drop in the measured response relative to a control, in per cent.

In this assay the test system is Plasmodium falciparum. Briefly: Primary screen in NF54 nanoGlo assay, in single point, at 2uM, 72h; a lower Z score goes with more inhibition. The class given is functional, Erythrocyte. To be noted: timepoint 72 hour.
As to `O=S(=O)(c1cccnc1)N1CC[C@H](Oc2cnc3ccccc3n2)C1`, the “% Inhibition” value was determined as 10% and the Z score is recorded as -1.88.

With `CC(C)CCC1CCCN1CC1CCOC1` (stereo unspecified), the “% Inhibition” value was -6% and the Z score was 0.92.

For the molecule `O=C(NCc1nccnc1-c1ccco1)Nc1nc(-c2ccccn2)cs1`, the “% Inhibition” value is 1% and the Z score is reported as -0.15.

Regarding `NC(=O)c1ccc(NC(=O)c2ccc(Nc3ncccn3)cc2)cc1`, the “% Inhibition” value is on record as -3% and the Z score was found to be 0.34.

Regarding `O=C(NCC[C@H](O)c1cc2ccccc2o1)NC1CCOCC1`, the “% Inhibition” value is given as -3% and the Z score worked out at 0.31.

In the case of `Cc1cc(=O)c(C(=O)N(Cc2cccnc2)C2CCN(C)CC2)c[nH]1`, the “% Inhibition” value is given as -15% and the Z score is 2.62.

Take `O=C(NCCc1ccco1)c1ccc(-n2nnc3cccnc32)cc1`: the “% Inhibition” value is -21% and the Z score is 2.46.

On to `CC(C)(C)N1CC[C@H](NS(=O)(=O)c2cn[nH]c2)C1`, for which the “% Inhibition” value was -4% and the Z score came out at 0.73.

Turning to `CCn1cc(S(=O)(=O)N2C[C@@H](C(=O)NC)[C@H](c3nc(C)no3)C2)cn1`, the “% Inhibition” value is listed as 0% and the Z score is -0.04.

In the case of `CC(C)(C)OC(=O)C(=O)N1CCC[C@@H]1COC(=O)c1ccccc1`, the “% Inhibition” value is given as -11% and the Z score stood at 1.51.

On to `COc1ccc(-c2c(C)nn3c(N4CCc5ccccc54)cc(C)nc23)cc1OC`, for which the “% Inhibition” value is listed as -3% and the Z score is reported as 0.36.

Turning to `COc1cccc(CC(=O)Nc2cnn(-c3ncncc3N(C)C)c2)c1`, the “% Inhibition” value is 7% and the Z score was -0.77.

For the molecule `CCn1nc(C(=O)NCc2ccccc2F)cc1-c1ccc(Cl)s1`, the “% Inhibition” value is listed as -6% and the Z score was found to be 0.62.

Consider `Cc1cnc(CNC(=O)c2cc(C)nc(C)n2)cn1`, for which the “% Inhibition” value is reported as -12% and the Z score was found to be 2.27.

Turning to `COCc1nc(C)nc(N2CCN(C(=O)c3ccco3)CC2)c1Cc1ccccc1F`, the “% Inhibition” value is reported as -22% and the Z score was 3.18.

Turning to `C[C@H]1CC(=O)NCCN1C(=O)Cc1ccc(Cl)c(Cl)c1`, the “% Inhibition” value is on record as -4% and the Z score amounted to 0.61.

In the case of `COc1ccc(CN2CCNC(=O)C2(C)C)cc1OC[C@@H](O)CN1CCCCCCC1`, the “% Inhibition” value is listed as -11% and the Z score is given as 2.11.

Consider `O=C(O)c1ccc(-c2ccc(-c3nc(-c4ccccc4)c(-c4ccccc4)[nH]3)o2)cc1`, for which the “% Inhibition” value was -17% and the Z score is on record as 1.98.

`O[C@H](COc1ccc2c(c1)CCC2)CN1CCCC1`: the “% Inhibition” value is -3% and the Z score was 0.57.

As for `CO[C@H]1CCCN(C(=O)Nc2ccc3sc(C(=O)N(C)C)cc3c2)C1`, the “% Inhibition” value is listed as -9% and the Z score came to 1.5.

`COc1ccc(S(=O)(=O)N2CC(N3C(=O)COC3=O)C2)cc1C`: the “% Inhibition” value was -8% and the Z score is reported as 0.96.

Consider `O=C(c1cc(F)cc(F)c1)N1CCN(Cc2cccc(-c3noc(-c4cccc(C(F)(F)F)c4)n3)c2)CC1`, for which the “% Inhibition” value is given as 0% and the Z score was found to be 0.01.

On to `N#CCNC(=O)c1ccc(C#N)c(Cl)c1`, for which the “% Inhibition” value came out at 6% and the Z score is recorded as -1.18.

`Cc1ccc2c(=O)c(C(=O)N3CCCC3)cn(CC(=O)NC3CCCCC3)c2n1`: the “% Inhibition” value was -10% and the Z score was determined as 1.38.

Consider `Cc1cccc(NC(=O)CC(=O)N2Cc3nc(C)n(C)c(=O)c3C2)c1C`, for which the “% Inhibition” value is recorded as -1% and the Z score is 0.26.

Regarding `Cc1ncsc1CCC(=O)N1CCc2onc(C(=O)N(C)C)c2C1`, the “% Inhibition” value is on record as -6% and the Z score is 0.82.

Take `C[C@@H](CN(C)c1cncc(-c2cccs2)n1)C(=O)O`: the “% Inhibition” value was determined as 4% and the Z score is reported as -0.56.

For `Cc1cc(CNC(=O)NC2CCCCCCC2)no1`, the “% Inhibition” value is on record as -4% and the Z score is listed as 0.43.

With `COC[C@H]1CN(S(=O)(=O)c2cccc(C)c2)CC12CCOCC2`, the “% Inhibition” value is on record as -9% and the Z score was 1.2.

Consider `CCN(CC)C(=O)c1cn([C@H]2CCCN(Cc3cccc4cccnc34)C2)nn1`, for which the “% Inhibition” value is reported as -9% and the Z score is listed as 1.1.

In the case of `Cc1nnc2n1CCC[C@@H]2NC(=O)N(C)CCOCC1CC1`, the “% Inhibition” value is recorded as -3% and the Z score was 0.38.

Take `O=C(NCc1cccnc1)[C@@H]1COC2(CCN(C(=O)c3ccc(F)cc3F)CC2)N1C(=O)c1ccccc1`: the “% Inhibition” value is -3% and the Z score is on record as 0.48.

Regarding `CCc1cnc(Cn2nc(-c3ccccc3)cc(C(F)(F)F)c2=O)o1`, the “% Inhibition” value is -6% and the Z score is 0.55.

In the case of `c1cc2cn[nH]c2cc1NCC1CCCCC1`, the “% Inhibition” value is given as -3% and the Z score is given as 0.47.

In the case of `Cc1ccn(Cc2cc(-c3ccc(Cl)cc3)no2)c(=O)c1C#N`, the “% Inhibition” value is given as -2% and the Z score is listed as 0.27.

On to `Cc1ccc(CN(Cc2ccncc2)C(=O)[C@@H]2CCCCO2)s1`, for which the “% Inhibition” value is on record as -9% and the Z score worked out at 1.41.

For `CC[C@H](NS(=O)(=O)c1cc(C(N)=O)cs1)c1nc(C)c(C)s1`, the “% Inhibition” value is -11% and the Z score came to 1.71.

Turning to `O=C(O)C[C@H]1COCCN1C(=O)c1cccc2c1CCC2`, the “% Inhibition” value is -11% and the Z score stood at 1.11.

As for `Cc1nnc(CC(=O)N(c2ccc3[nH]ccc3c2)[C@@H](C)CC(C)C)o1`, the “% Inhibition” value is -18% and the Z score is 2.96.

As for `C[C@H]1CN(C(=O)NCCc2ccccc2F)C[C@]1(O)C1CC1`, the “% Inhibition” value is given as -3% and the Z score worked out at 0.55.

`CCCc1nnc(-c2ccc([C@H](C)N(C)C)cc2)s1`: the “% Inhibition” value was -6% and the Z score is 1.02.

Consider `C[C@H](OC(=O)c1ccc2c(c1)CCCC2)C(=O)Nc1ccc(S(N)(=O)=O)cc1`, for which the “% Inhibition” value turned out to be 29% and the Z score is on record as -3.22.

On to `O=c1c2cccnc2ncn1[C@H]1COC[C@@H]1N1CCCC1`, for which the “% Inhibition” value was -8% and the Z score turned out to be 0.71.

`CC(C)N1CCC(NC(=O)c2cc3c(s2)CCCC3)CC1`: the “% Inhibition” value is 1% and the Z score was -0.26.

As to `COc1ccc(CCNc2oc(CC(C)C)nc2C#N)cc1`, the “% Inhibition” value is given as 4% and the Z score is -0.47.

As for `Cc1ccc(S(=O)(=O)NCc2ccc(C(=O)NCCCN(Cc3ccccc3)C(C)C)cc2)cc1`, the “% Inhibition” value is recorded as -4% and the Z score worked out at 0.68.

For the molecule `CCn1cc(-c2nncn2-c2ccccc2)c(C)n1`, the “% Inhibition” value is reported as -12% and the Z score was 1.43.

`OCC1(c2ccccc2)CN(Cc2cc(Cl)ccc2F)C1`: the “% Inhibition” value was -13% and the Z score was determined as 1.66.

On to `O=C(Nc1ccc(F)cn1)N1CC2(CCOCC2)[C@@H]2CCC[C@@H]21`, for which the “% Inhibition” value is reported as -14% and the Z score is listed as 2.81.

In the case of `c1cncc(C2CN(c3ncnc4[nH]ccc34)C2)c1`, the “% Inhibition” value is listed as 5% and the Z score is given as -0.87.

Turning to `CC[C@H](C)N(Cc1ccccc1OS(=O)(=O)c1ccc(OC)cc1)C(=O)c1cccc(F)c1`, the “% Inhibition” value worked out at 20% and the Z score was -2.85.

As for `CC(C)COc1ncccc1C(=O)N1CCN(CC(F)(F)F)C(=O)C1`, the “% Inhibition” value is -1% and the Z score is recorded as 0.07.

With `Cc1cc(C)cc(NC(=O)CN2C(=O)CCc3cc(S(=O)(=O)N4CCCC4)ccc32)c1`, the “% Inhibition” value is listed as -7% and the Z score is on record as 1.38.
